Measurements reported in ChEMBL document CHEMBL1201862, “PubChem BioAssay data set” (2004).
“And” between values parts separate entries of the source, which are not always exact repeats. Equal values may be shown once.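 Assay format: 96-well plates, 48-hour exposure. The concentration for 50% growth inhibition is given as GI50.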 The source made the active and inactive calls. Rule as the data show it: active = GI50 up to about 1.1 µM and inactive = higher.

tested on: NCI-H322M; assay: NCI-60 cell line screen, 48 h

SMILES | GI50
C=C1C[C@@H]2CC[C@@]34CC5O[C@H]6C(O[C@H]7CC[C@H](CC(=O)O[C@@H]8[C@@H](C)[C@@H]9O[C@@H]%10C[C@]%11(C[C@@H]%12O[C@]%13(C[C@H](C)[C@@H]%14O[C@@H]%15CC(C(COC(C)=O)OC(C)=O)O[C@@H]%15C[C@@H]%14O%13)C[C@H](C)[C@@H]%12O%11)O[C@@H]%10C[C@@H]9O[C@H]8CC8O[C@@H](CC[C@@H]1O2)C[C@@H](C)C8(O)CO)O[C@@H]7[C@@H]6O3)[C@H]5O4 (some centres undefined) | active: 0.46 µM
O=C(O)CCC(NC(=O)c1ccc(Nc2nc3ccc(C(F)(F)F)cc3nc2-c2ccccc2)cc1)C(=O)O (centres undefined) | inactive: > 100 µM
COc1cc(OC)c(C#N)c(OC)c1C | inactive: > 100 µM
O=[N+]([O-])c1ccc2c(c1)N=C1OC(c3c[nH]c4ccc(COc5ccccc5)cc34)C(O)=C1N2 (centres undefined) | inactive: 96.4 µM
CC(/C(=N/NC(=O)C(N)=O)c1c(Cl)ccc(Cl)c1O)C1(O)C(=O)Nc2ccccc21 (centres undefined) | inactive: 44.1 µM
COc1cc(C2SC(=N)Nc3c2c(C)nn3C(=O)Cc2ccccc2)ccc1O (centres undefined) | inactive: > 100 µM
CC#CC#C/C=C1\C=CC2(OC=CC2O)O1 (centres undefined) | inactive: > 23.3 µM
CCOC(=O)C1=C(C)N(NC(=O)Nc2ccccc2)C2(N)N(NC(=O)Nc3ccccc3)C(C)=C(C(=O)OCC)C12C#N (centres undefined) | inactive: 22.3 µM
O=C1c2c(c3c4ccccc4n(CC4CO4)c3c3[nH]c4ccccc4c23)C(=O)N1Cc1ccccc1 (centres undefined) | inactive: > 100 µM
CCOc1ccccc1/C=C1\NC(=O)N(/C=C2\C(=O)Oc3ccccc3C2=O)C1=O | inactive: 55.6 µM
COc1cc([C@@H]2c3cc4c(cc3[C@@H](NCc3ccccc3F)C3COC(=O)[C@@H]32)OCO4)cc(OC)c1O (some centres undefined) | inactive: 36.2 µM
CCOc1ccc2c(C)cc(=O)oc2c1 | inactive: > 100 µM
CC(Oc1ccc(Oc2cnc3ccc(Cl)cc3n2)cc1)C(=O)O (centres undefined) | inactive: > 100 µM
CCOC(=O)CC(c1ccccc1)C(C)(C(=O)OCC)C(=O)OCC (centres undefined) | inactive: > 100 µM
CCN1C(=O)/C(=C\c2coc3ccccc3c2=O)SC1=S | inactive: > 100 µM
Cc1cc(C)nc(NS(=O)(=O)c2ccc(NC(=O)c3ccc4nc5ccccc5c(Nc5ccc(S(=O)(=O)N=C(N)N)cc5)c4c3)cc2)n1 | inactive: > 100 µM
O=C(/C=C/c1ccc(Cl)cc1)c1ccc(Cl)c(Cl)c1 | inactive: 57.7 µM
CN(C)/N=N/c1ccc(NC=O)cc1 | inactive: > 100 µM
Cc1cc(=O)oc2cc(O)c(CN(C)CC(=O)O)cc12 | inactive: > 100 µM
COCC1OC(OC2OCC3OC4(OCC(O)(C(C)OC)C5OCOC54)OC3C2OC)C(OC)C(O)C1OC1OC(C)C(OC)C(OC2OC(C)C3OC4(CC(O)C(OC5CC(OC6CC(C)([N+](=O)[O-])C(OC)C(C)O6)C(OC(=O)c6c(C)c(Cl)c(O)c(Cl)c6OC)C(C)O5)C(C)O4)OC3(C)C2O)C1O (centres undefined) | inactive: > 100 µM

SMILES | GI50
Clc1ccc(OCC2NC3C=CC32)cn1 (centres undefined) | inactive: > 100 µM
COc1ccc(/C=C2\S/C(=N/Nc3nc(-c4ccccc4)cs3)NC2=O)cc1OC | inactive: 29.9 µM
CN(C)CCNC(=O)c1cccc2c(=O)c3ccccc3oc12 | inactive: 27.5 µM
O=P1(N(CCCl)CCCl)Oc2ccc(Cl)cc2Sc2c(ccc(Cl)c2Cl)O1 (centres undefined) | inactive: 57.7 µM
C[C@H](N)C(=O)N[C@@H]1[C@H]2C(=C(O)C[C@@H](O)[C@@H]2O)C(=O)O[C@]1(C)C(Cl)Cl [BACTOBOLIN] | active: 0.201 µM
O=c1[nH]nc(Cc2ccccc2)n1/N=C/c1ccncc1 | inactive: > 100 µM
O=C1c2ccccc2-c2cccc3ccc(Cc4ccc5ccccc5c4)c1c23 | inactive: > 100 µM
Cc1nnc2nc(-c3ccc(Cl)cc3Cl)cc(-c3ccc(Cl)cc3)n12 | inactive: > 100 µM
COc1cc(N(CCC#N)CCC#N)ccc1/C=C1\SC(=S)NC1=O | inactive: > 100 µM
Nc1cccc(OCC2CCCN3CCCCC23)c1 (centres undefined) | inactive: 16.1 µM
O=[N+]([O-])c1ccc(N2N=C(c3ccc4ccccc4c3O)CC2c2ccc(Cl)cc2)c([N+](=O)[O-])c1 (centres undefined) | inactive: 32.1 µM
CC(O)CCC(=O)c1ccoc1 (centres undefined) | inactive: 8040 µM
c1ccc(Nc2nnc(-c3nsc4ccccc34)o2)cc1 | inactive: > 100 µM
COC(=O)C1OC(O[C@H]2CC[C@]3(C)[C@H]4CC=C5[C@@H]6CC(C)(C)CC[C@]6(C(=O)OC6OCC(O)C(O)C6OC6OC(C)C(OC7OCC(O)C(OC8OCC(O)C(O)C8O)C7O)C(OC7OCC(O)C(O)C7O)C6O)CC[C@@]5(C)[C@]4(C)CC[C@H]3C2(C)C)C(O)C(OC2OCC(O)C(O)C2O)C1O (some centres undefined) | inactive: 3.36 µM and inactive: 2.65 µM
Cc1ccc(C2=CC(=O)c3ccccc3C2=O)n1-c1ccccc1 | inactive: > 100 µM
CC(=O)Nc1cc2cc(NS(=O)(=O)c3ccc(Cl)c(Cl)c3)ccc2oc1=O | inactive: 49.7 µM
C=C1Cc2cc(OC)c(OC)c(OC)c2-c2ccc(SC)c(=O)cc21 | active: < 0.01 µM
COc1cc(C2SCC(=O)N2c2ccc(-n3c(-c4ccccc4)nc4ccccc4c3=O)cc2)ccc1O (centres undefined) | inactive: > 100 µM
N/C(COc1ccc(Cl)cc1)=N\NC(=O)c1ccncc1 | inactive: > 100 µM
Cc1cccc(Nc2nc3ccccc3nc2NS(=O)(=O)c2ccc(N)cc2)c1 | inactive: 43 µM

SMILES | GI50
CCn1nc(C)c2c1C(=O)NC(C)C(=O)N2 (centres undefined) | inactive: > 100 µM
CCOC(=O)c1c(N2CCOCC2)[nH]c(=O)c(C(c2cccs2)c2c(O)c(C(=O)OCC)c(N3CCOCC3)[nH]c2=O)c1O | inactive: > 100 µM
Cc1ccc2c(=O)cc(-c3cccc(F)c3)[nH]c2n1 | active: 0.0456 µM
NC(=O)C(=O)C(c1ccccc1)S(=O)(=O)Cc1ccccc1 (centres undefined) | inactive: > 100 µM
CC1(C)N=C(N)N=C(N)N1c1cccc(CSc2ccccc2)c1 | active: 0.285 µM
COc1cc2c(cc1OC)C(=O)/C(=C/c1cc(OC)c(OC)c(OC)c1)C2 | inactive: > 100 µM
Cc1cc(NCCCCCCCCNc2cc(C)nc3cc(N(C)C)ccc23)c2ccc(N(C)C)cc2n1 | inactive: 6.04 µM
c1ccc(CCN2CCOCC2)nc1 | inactive: > 100 µM
Cc1occc1/C(S)=N\c1ccc(Cl)c(C(=O)OCC2CC2)c1 | inactive: > 100 µM
CN(C)N1C(=O)S/C(=C\c2ccc([N+](=O)[O-])cc2)C1=O | inactive: 76.4 µM
C[Si](C)(C)/C=C/CN1C(=O)CCC1O (centres undefined) | inactive: > 100 µM
C=C(c1ccccc1)[C@@]1(O)CC[C@@H]1N(CC#N)Cc1ccccc1 | inactive: 97.5 µM
Cc1nn(C(=O)Cc2ccccc2)c2c1C(c1ccc(N(C)C)cc1)SC(=N)N2 (centres undefined) | inactive: > 100 µM
COc1ccc2c(c1)CCN1C3=C(CCC3)C(=O)C[C@@H]21 | inactive: > 100 µM
CC(NC1=NCCO1)c1ccco1 (centres undefined) | inactive: > 100 µM
COc1ccc2c(c1)[n+]([O-])c(C(=O)C/C(=N/NC(=O)C[N+](C)(C)C)C(=O)Nc1cccc(C)c1C)c(C)[n+]2[O-] | inactive: > 100 µM
Cc1cccc(C)c1NC(=O)CCC(=O)CC(=O)C(C)C | inactive: > 100 µM
C=C1C(=O)OC2C[C@@]3(C)CCCC(=C)C3CC12 (some centres undefined) | inactive: 15.2 µM
CCOC(=O)NC(OCCN(C)C)(C(F)(F)F)C(F)(F)F | inactive: > 100 µM
